This is a noisy data set.
Assay: amyloid nucleation score relative to library mode (yeast Sup35 reporter selection) (log enrichment difference); higher = more amyloid nucleation; sequences are the first 22 residues of the Bri2 peptide extended by up to 12 random residues
Details: random library (experiment): 1;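 active = nucleation score significantly above 0 at FDR 0.05; inactive = not significantly above 0 or absent from output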
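Further: [psi-pin-] Saccharomyces cerevisiae expressing SupN fusions, induced by 100 µM Cu2SO4, selected 7 d at 30 °C without adenine and uracil, scored by deep sequencing of output versus input.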

Sequence	amyloid nucleation score
EASNCFAIRHFENKFAVETLICRVCSIILCQPSC	5.72
EASNCFAIRHFENKFAVETLICGSNVRERHPVGR	inactive
EASNCFAIRHFENKFAVETLICRWDQLLGMSLVC	inactive
EASNCFAIRHFENKFAVETLICEPSMGFGCGVDG	5.56
EASNCFAIRHFENKFAVETLICTFVSCVKLLGQG	inactive
EASNCFAIRHFENKFAVETLICLALCDGNQSKTG	5.22
EASNCFAIRHFENKFAVETLICCLNSRYAVSLGH	2.89
EASNCFAIRHFENKFAVETLICRVNRLLRCRTW	inactive
EASNCFAIRHFENKFAVETLICLSYGDT	4.41
EASNCFAIRHFENKFAVETLICNGDCCKGRYLRR	4.62
EASNCFAIRHFENKFAVETLICDTWVVVHRDRD	7.1
EASNCFAIRHFENKFAVETLICWHRVSVFQLESA	inactive
EASNCFAIRHFENKFAVETLICRLMWMRFWRMAA	inactive
EASNCFAIRHFENKFAVETLICMWMSWPRPCSRA	inactive
EASNCFAIRHFENKFAVETLICCVYAGHGSDTAG	8.93
EASNCFAIRHFENKFAVETLICVTGYSWLYRWVH	-0.137
EASNCFAIRHFENKFAVETLICVEVMASVLGWIK	inactive
EASNCFAIRHFENKFAVETLICRKAFLSYCDVWR	inactive
EASNCFAIRHFENKFAVETLICDDCKSAQMHTMG	inactive
EASNCFAIRHFENKFAVETLICCQ	inactive

Same assay, conditions: random library (experiment): 2

Sequence	amyloid nucleation score
EASNCFAIRHFENKFAVETLICGTVY	-0.191
EASNCFAIRHFENKFAVETLICKSQDIFWGLVIA	0.301
EASNCFAIRHFENKFAVETLICGHVRNGREFIFL	1.2
EASNCFAIRHFENKFAVETLICFVILNMRFVWYV	inactive
EASNCFAIRHFENKFAVETLICNNLCHASWGRPG	7.2
EASNCFAIRHFENKFAVETLICCPSLWCVIVI	5.41
EASNCFAIRHFENKFAVETLICPCCWIPLVKNIF	2.46
EASNCFAIRHFENKFAVETLICLLLVCVHYVAFA	-0.392
EASNCFAIRHFENKFAVETLICPSFCIEYWCYYM	inactive
EASNCFAIRHFENKFAVETLICFPCSILLGLSSY	4.65
EASNCFAIRHFENKFAVETLICFLFVLGIKEYKS	inactive
EASNCFAIRHFENKFAVETLICLSWTAEWQWLC	6.25
EASNCFAIRHFENKFAVETLICFLRMRVYMLIVF	inactive
EASNCFAIRHFENKFAVETLICALDIVGIEECCC	0.777
EASNCFAIRHFENKFAVETLICEVKWKNVMSWEA	1.37
EASNCFAIRHFENKFAVETLICVHPFFYFCLESK	5.42
EASNCFAIRHFENKFAVETLICDVPEVWAGGSRR	inactive
EASNCFAIRHFENKFAVETLICGSWTWAIGVCAC	5.47

Same assay, conditions: random library (experiment): 3

Sequence	amyloid nucleation score
EASNCFAIRHFENKFAVETLICRTQSRRSGDMHD	inactive
EASNCFAIRHFENKFAVETLICYMSSNRIGNRTR	4.28
EASNCFAIRHFENKFAVETLICLMSDNHVMSVTW	inactive
EASNCFAIRHFENKFAVETLICRGDDGWALRSTY	inactive
EASNCFAIRHFENKFAVETLICGAVRP	inactive
EASNCFAIRHFENKFAVETLICPSRTRPVGQES	inactive
EASNCFAIRHFENKFAVETLICAVPGSVADWSCG	5.56
EASNCFAIRHFENKFAVETLICWDTGVSSQWYAH	0.0944
EASNCFAIRHFENKFAVETLICVEWAWSSSTVVF	0.379
EASNCFAIRHFENKFAVETLICFIPYWVVTSLRM	inactive
